According to the supplement of paper PMC10126150:
Sequences with one replicate were seen in a single cluster, so their values are uncertain.

System: ATP
Assay: switch fluorescence ratio, 500 uM ATP over buffer (Cy3 cluster intensity, sum of 5 cycles each) (fold (ratio)); higher = stronger signal-on switching upon ATP binding; sequences stand for … in TCGTCGGCAGCGTCAGATGTGTATAAGAGACAGTTTTTTTTTTTTTTTTTTTTTTTTT…TC
Settings: aptamer strand: ATP DNA aptamer (quencher-CACCTGGGGGAGTATTGCGGAGGAAGG + anchor), 100 nM annealed; ATP concentration: 500 uM; one replicate
Procedure, shortened: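 The quencher-labelled ATP aptamer, at 100 nM, was annealed to Cy3-labelled switching-strand clusters on a modified Illumina MiSeq flow-cell. The clusters were imaged in selection buffer, then after 15 min with 500 uM ATP at 22 °C, and this buffer/ATP cycle ran five times with NaOH stripping and re-annealing between runs. Per-cluster fluorescence ratios, summed target-cycle over summed buffer-cycle Cy3 intensity, were averaged per switch-domain sequence. Clusters outside 100-1000 RFU were excluded.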
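Further: ATP exposure 15 min at 22 °C before imaging.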

Sequence	switch fluorescence ratio
GGGACGACTC	1.45
AGTTCTCAGC	1.04
TTAAGTCTCT	0.985
TTCCTTCAGT	2.29
CCAAGCTGCA	1.32
TTCCCACGT	1.03
TGGTGATCCT	1.02
ACCGGTTTGG	0.975
GTAGTTCGCT	0.913
GCAGGCTAAG	0.972
ATGGTATGCA	0.999
GGTACATATC	0.997
AGCAAGCAAA	1.16
GCTTGTGAAA	0.994
TGGCAGTGAG	0.997
GCGTTTTAAT	1.01
TTAACTGTAG	1.07
AAGTGAATTT	1
GGAGTGTTAC	1.01
TGATTATACC	0.986
AGGCGGGTCA	1.05
GTTGAGGATT	1
TCGACGGGCA	1.08
CAAGGATTCT	1.01
GGTTTTAAAC	0.995

Sequence	switch fluorescence ratio
CCCCATGTAT	1.05
GGCGCGGCAC	1.01
CCAGTCTATA	0.998
AAGAATTAAG	1.01
TTCATATCTT	1.02
ATCTTGAGGT	0.987
GCTTCAGAGG	0.987
TGATTCTCCC	1.02
CTTGTCACTT	1.04
GTATTAATCC	1.03
ATTATTGGAT	1.01
AGCAGGCAGT	1
CGGTAAGGTT	1.16
AGGAATATGC	0.984
AGCGGCGGGG	1.04
AGCGGTCGCG	0.965
CAAAAAATGC	1.04
CCATCAACGG	1
AACTCCAACG	1.13
ACCCGATAGC	1.29
ATACTGGCAT	0.99
TTTCAACTGC	0.928
CGATTGCGGG	1.02
ATTAGATGGC	0.951
TGATAGACAG	0.995

Sequence	switch fluorescence ratio
AAGTCTAGCC	0.987
GGTTCCCGCC	1.03
GGGGGATCCC	0.993
GGCCGGGTTG	0.984
TAAATCTGTT	1.05
AAAACCGGGG	1.1
CGCTGGTACC	1.09
CGCCAGAGGC	1.05
TGGCCTCGC	1.03
TTCGTCGTGA	1.01
GGTAAATACG	1.09
GTGGTCATGG	0.978
GGTTAGGCAG	0.991
GATTATAACT	0.949
GGCATGTACT	1.2
CCTGCCCACG	1.43
GACAGTAGCT	1.05
CGAGTTCCGC	1.13
TAAGTGATGA	0.986
TGAAGCTAGT	0.993
TGACTGGGTG	0.936
CTATTCGATT	1.02
TTATAAGCAT	1.06
GTCCTCGAGT	1
CCTGATCGGA	1.01

Sequence	switch fluorescence ratio
AATTATTACG	1.05
GTCGGGGCAA	1.09
ACATCTCCTG	1.02
GGTACAAGTG	0.938
AGATGGTACC	0.986
TTTAGTGGTG	0.969
TTATGGTTTA	1.06
TTATGCGCTC	1.04
CGTTCTCTCA	1.01
AAACGACAAG	1.04
AAGGTGCGTC	1.06
CTACAGTCGA	1.07
CACCGGCTGT	1.03
GCTTGTAAAC	0.983
ACGTGTGCAG	1.16
GACGTTTGTT	1.44
ACCTTAGATC	1.1
TATTGGTACG	1.01
GCGTTTTCAT	0.982
AAGCTGTGGG	0.973
CTTACAGCTG	0.985
TGGGGAGGG	0.964
ACATATGTGT	1.01
TCATTGATTC	0.997
AAGGAAGCGC	0.996

Sequence	switch fluorescence ratio
AGGCTTATTA	0.997
CAAGGACTCC	1.12
GTAGTTTCGA	1.03
CTCACCCGGC	1.65
CGGTGGCGCG	0.985
AGTGTCTATA	0.968
CGGGACGCCA	1.03
GCAAACGCCT	1.14
TTTGGCACTT	1.04
TAGACAATGG	0.921
AAGAAGCTAG	1.07
ATGCCAGGAT	1.02
TACCATTTG	1.01
GTTGCCCAGG	3.14
GCATTGAGGA	1.02
CCCCCCTGAC	1.96
CGCACGGTAC	2.83
GACATGCCTT	1.01
TCACGACGAA	1.07
TTTATCAGGA	0.987
AGGGCCAGAG	1
CAAGCTCCTA	1.02
CGTCATTTCT	0.981
ACTGGGCAGG	1.02
AGATGATTAA	1.02

Sequence	switch fluorescence ratio
AGTAACCGT	1
CCACGCCTAA	1.49
GACAGATTAG	1.01
CCCCAGTTTT	1.17
TAGTCAGCAT	1.12
CTTCCTAGGG	1.18
TATTTTCCCG	1.23
AAATACGTTC	0.987
CGGCACTTGT	1
AACTTGACTA	1.04
AAGTTCAGAC	1.02
AGTGATCGCG	0.968
GTTTGCCGAA	0.988
TACGATTGGG	0.971
CGTCAAGCAC	3.04
TCCGTTGGAC	2.78
AAATTTGTTT	1.07
CTGCACGGAT	1.03
GTTTTGCTCG	1
TTGGCGGCA	1.03
TCCAACTCAG	1.05
TTGCCAAACA	0.985
TGGCCACCAC	1.1
AGGTCCTTGC	1.17
AGAACGGCGA	0.982

Sequence	switch fluorescence ratio
GGTCTATGAT	1.01
CTTGGCAACG	1.04
CGGATCAGTC	1.02
GGTACAGAG	1.15
CTTCATACGT	1.39
CAGGCCAGAG	1.02
TTTCCGTTCG	1.03
GGTTTGTAT	0.947
CGAGCTCGTC	1.01
GTGTCGGCTT	0.984
ATAGGGGTCT	1
AGTACCCAGA	1.03
TGGAAAGCCA	0.973
GAATTTTGCC	1.05
TGAGTGATGC	1.1
CTAGATAAGT	0.988
AGAAAGACGT	1
TGATGGCGAA	1.04
TCCAGAATCA	0.974
GGGACAGGG	0.945
CAGCTGGAAT	1
GGTGGCCGT	1.02
ACTCCAGGGA	1.6
GAGAGGGCGT	1
AAACACCAAG	1

Sequence	switch fluorescence ratio
CGAAGGGATT	1.09
TTAGGCAGGA	0.975
CGCCTTTCGA	1.06
TAAATGTATA	1.01
TTACAACTCG	1.02
CCGTGTTAAA	1.02
GTAGCTAGTG	0.987
AGCGTGTCGG	1.04
CCGAATCTA	1.11
TCAAGGGCG	1.08
CTCTACGTCA	1.32
GGGCCTCTCC	1.22
GATCTGCCA	1.03
CTACGTTTTT	2.97
ATTAACTAGC	0.988
GACCGTCTAC	1.17
AATCGGTCTA	0.981
ATCGCCCGTG	1.07
GATTCCTATG	1.02
GCCATAGATG	1
CGAACATTGG	0.932
CCTGGTGCCT	1.27
ACTATTTAT	0.938
GCTTCTATGG	1.04
CCAATACGGG	1.64
